Results taken from PubChem BioAssay AID485294 (National Center for Advancing Translational Sciences (NCATS), 2010).
The campaign covered roughly 370,000 compounds. About 150 (0.041%) were called active. Inconclusive means that the source gave no clear call. Such entries were picked first, then a sample of the others. Calls follow the shape of the dose curve; as a rule, active = well fitted inhibition curve with a large enough effect; inconclusive = small, poorly fitted or top-dose-only effect; inactive = flat fitted curve, though single readings scatter. Potencies of inconclusive entries are left out as doubtful fits.

Each molecule was assayed against Beta-lactamase (Escherichia coli (strain K12)) (UniProt P00811) (assay: qHTS Inhibitors of AmpC Beta-Lactamase (assay with detergent)). Conditions: AmpC hydrolysis of nitrocefin, absorbance 480 nm, 0.01% Triton; series mostly up to 114 µM.
Sequence of UniProt P00811 (P00811 whole entry, looked up): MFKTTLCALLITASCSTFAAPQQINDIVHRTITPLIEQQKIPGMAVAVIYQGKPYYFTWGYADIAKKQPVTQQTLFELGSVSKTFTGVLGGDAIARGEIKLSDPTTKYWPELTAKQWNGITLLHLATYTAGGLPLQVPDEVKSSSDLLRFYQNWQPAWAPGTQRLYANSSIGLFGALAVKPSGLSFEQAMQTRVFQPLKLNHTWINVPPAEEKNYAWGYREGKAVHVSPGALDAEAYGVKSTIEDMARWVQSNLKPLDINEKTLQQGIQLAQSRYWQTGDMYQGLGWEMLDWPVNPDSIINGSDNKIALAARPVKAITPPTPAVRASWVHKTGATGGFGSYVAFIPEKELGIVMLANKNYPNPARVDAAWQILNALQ
Outline: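 20 mM phosphate pH 7.0 + 0.01% (detergent screen) or 0.0001% Triton X-100; 5.3 nM AmpC reagent; cpd preinc 15 min RT; nitrocefin (800 uM stock) to start; A480 q20 s × 4 min; Activity was normalised to no-enzyme and no-compound control wells.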
Also: nearly all actives have a fitted effect of over 25% in size.
Potency is read from the fitted curve at half-maximal effect; tags tell the direction and shape of the fitted curve.

Compound	Potency
COc1ccc(C2C(C(=O)c3sc(C)nc3C)=C(O)C(=O)N2CCN2CCOCC2)cc1 (stereo not drawn)	inconclusive [inhibitor, full curve, poor fit]
Cc1cc(/C=N/n2cnnc2)c(C)n1-c1cccc(Cl)c1	inconclusive [inhibitor, full curve, poor fit]
O=C(/C=C/c1ccco1)N(c1ccccn1)c1ccccn1	inconclusive [inhibitor, partial curve, poor fit]
COc1ccc(NC(=O)Nc2ccccc2SC)cc1OC	inactive
COc1ccc(Cl)cc1NC(=O)C1CC(c2ccccc2O)=NO1 (stereo not drawn)	inconclusive [inhibitor, partial curve]
O=S(=O)(/N=C(/NC(=S)Nc1ccccc1)c1ccccc1)c1ccc(Cl)cc1	inactive
CC(=O)Nc1cccc(NC(=O)CSc2nc(=O)n(Cc3ccccn3)c3c2CCC3)c1	inconclusive [inhibitor, full curve]
Cc1ccc(C(C)C)c(OCC(=O)NCC(c2cccs2)N2CCOCC2)c1 (stereo not drawn)	inconclusive [inhibitor, partial curve]
O=c1c2ccccc2[nH]c(=S)n1CCC1=CCCCC1	inconclusive [inhibitor, partial curve, poor fit]
O=C(C(=O)N1CCCCCC1)c1c[nH]c2ccccc12	inactive
O=C(Cn1ccc2cc(S(=O)(=O)N3CCCCCC3)ccc21)NCCc1ccc(Cl)cc1	inactive
CC(C)OCCCNC(=S)NNC(=O)C(c1ccccc1)c1ccccc1	inactive
C=CCN1N=C(/C=C/c2ccccc2)CCC1=O	inactive
CSc1cccc(-n2ccc(=O)c(C)c2C)c1	inactive
O=C(O)[C@@H]1[C@H]2C[C@H]3c4[nH]c5ccccc5c4CCN3C[C@@H]2CC[C@@H]1O	inconclusive [inhibitor, full curve, poor fit]
CC(C)(C)C(=O)NC1CCN(S(C)(=O)=O)CC1	inconclusive [inhibitor, full curve, poor fit]
CCN(CC)S(=O)(=O)c1ccc2c(c1)N(CC(=O)N1CCN(c3ccc(Cl)cc3)CC1)C(=O)CO2	inactive
COc1cccc(-n2c(CN3CCN(C)CC3)nc3ccc([N+](=O)[O-])cc3c2=O)c1	inconclusive [inhibitor, full curve, poor fit]
O=C(NC1CCCCCC1)C1c2ccccc2C(=O)N1Cc1ccccc1Cl (stereo not drawn)	inactive
c1ccc(-n2nc3c(ccc4cnnc43)[nH]2)cc1	inconclusive [inhibitor, single point]
O=C(CN1CCN(c2nc(-c3ccccc3)cs2)CC1)NNC(=O)c1ccco1	inconclusive [inhibitor, full curve]
Fc1ccc(-c2nnc(SCc3cccnc3)o2)cc1	inactive
CC(C(=O)Nc1ccon1)N1C(=O)c2ccccc2S1(=O)=O (stereo not drawn)	inconclusive [inhibitor, partial curve]

Compound	Potency
COC(=O)N/N=C/c1cn(CC(C)COc2ccccc2)c2ccccc12 (stereo not drawn)	inconclusive [inhibitor, single point]
Cc1ccc(OCc2nnc(SCc3cc(=O)[nH]c4ccccc34)o2)cc1	inconclusive [inhibitor, full curve]
CCOC(=O)c1[nH]c(C)c(C(=O)Nc2ccc3c(c2)OCCO3)c1C	inactive
O=C(COC(=O)c1ccccc1Br)Nc1nnc(-c2ccccc2)o1	inconclusive [inhibitor, partial curve, poor fit]
CCCn1c(C(O)c2ccc3c(c2)OCO3)nc2ccccc21 (stereo not drawn)	inconclusive [inhibitor, partial curve, poor fit]
CCOC(=O)N1CCC(N2Cc3cccc(C(=O)N4CCN(c5cccc(C)c5C)CC4)c3C2=O)CC1	inactive
CCCc1nnc(NC(=O)CCC(=O)N2CCN(Cc3cc(F)ccc3OC)CC2)s1	inconclusive [inhibitor, full curve, poor fit]
NS(=O)(=O)c1ccc(N/N=C/c2cn(-c3ccccc3)nc2-c2ccccc2)c([N+](=O)[O-])c1	inactive
CC1CCN(C(=O)c2cc(S(=O)(=O)N3CCCCC3)c[nH]2)CC1	inconclusive [inhibitor, partial curve, poor fit]
COc1cccc(C(=O)CN2CCN(S(=O)(=O)c3cccc([N+](=O)[O-])c3)CC2)c1	inconclusive [inhibitor, single point]
COc1ccc(CNC(=O)COC(=O)c2cccnc2Nc2cccc(C(F)(F)F)c2)cc1	inconclusive [inhibitor, full curve, poor fit]
CN(Cc1ccccc1)Cc1nc2c([nH]1)c(=O)n(C)c(=O)n2C	inconclusive [inhibitor, single point]
O=C(NCc1cccs1)C1CCN(c2nccs2)CC1	inconclusive [inhibitor, partial curve, poor fit]
COC(=O)C(C(=O)OC)c1ccc(-n2cccc2)cc1	inactive
CCC(=O)Nc1cc(-c2nnc(OC)c3ccccc23)ccc1N1CCOCC1	inconclusive [inhibitor, full curve, poor fit]
Cc1cccc2cc(C#N)c(NCCNC(=O)NC3CCCCC3)nc12	inconclusive [inhibitor, partial curve, poor fit]
O=C(CCc1ccccc1)Nc1nnc(-c2ccc3c(c2)CCCC3)o1	inconclusive [inhibitor, full curve, poor fit]
CCC(=O)Nc1nc(C)c(C(=O)NC2CCCCC2)s1	inactive
O=C1CC(c2cccs2)CC(O)=C1C=NCCN1CCNCC1 (stereo not drawn)	inconclusive [inhibitor, full curve, poor fit]
CCNC(=S)N1CCN(c2nc(-c3cccc(OC)c3)cs2)CC1	inconclusive [inhibitor, partial curve, poor fit]
C=C(C)CNC(=S)N/N=C(\C)c1ccc(OC)cc1	inconclusive [inhibitor, partial curve, poor fit]
CCCOC(=O)NC1CCS(=O)(=O)C1 (stereo not drawn)	inconclusive [inhibitor, partial curve, poor fit]
CC1(C)CC2CC(C)(CN2C(=O)COC(=O)Cn2[nH]c(=O)c3ccccc3c2=O)C1 (stereo not drawn)	inconclusive [inhibitor, partial curve, poor fit]

Compound	Potency
CC(=O)c1cccc(NC(=O)C(C)n2c(=O)cc(-c3ccccc3)c3c(C)nn(C)c32)c1 (stereo not drawn)	inconclusive [inhibitor, full curve, poor fit]
Nc1nc(C2CCCN2S(=O)(=O)c2ccc(Cl)cc2)cs1 (stereo not drawn)	inconclusive [inhibitor, full curve, poor fit]
CC1CCc2cc(F)ccc2N1C(=O)CCl (stereo not drawn)	inconclusive [inhibitor, full curve, poor fit]
COc1ccc(O)c(/C=N/Nc2nc(Nc3ccccc3)nc(-n3nc(C)cc3C)n2)c1	inactive
COc1ccccc1N1CCN(C(=O)c2ccc(-c3ccc(Cl)cc3)o2)CC1	inconclusive [inhibitor, partial curve, poor fit]
COc1ccc(Cl)cc1N(C)C(=O)Cc1noc2ccc(C)cc12	inactive
CCOC(=O)N1CCN(c2cc(NCCO)c([N+](=O)[O-])c3nonc23)CC1	inconclusive [inhibitor, full curve, poor fit]
COc1ccccc1N1CCN(C(=O)Cn2cnc3sc(C)c(S(=O)(=O)N4CCC(C)CC4)c3c2=O)CC1	inactive
CC1Cc2ccccc2N1C(=O)CSc1nnc(Cn2nnc3ccccc32)n1C (stereo not drawn)	inconclusive [inhibitor, single point]
N#Cc1cc2c(=O)n3ccccc3nc2n(CCCN2CCOCC2)c1=O	inconclusive [inhibitor, partial curve]
Cc1cc(C)n(CC(=O)N/N=C/c2cc(Br)cc([N+](=O)[O-])c2O)n1	inconclusive [inhibitor, single point]
COc1ccc2nc(NC(=O)CSc3nnnn3C3CCCCC3)sc2c1	inactive
CCOC(=O)/C(=C\c1ccc(Cl)cc1)c1nc2sc(C)c(C)c2c(=O)[nH]1	inactive
Cc1nc2c(-c3ccc(F)cc3)c(C)nn2c(C)c1CCC(=O)N1CCN(c2ccc(F)cc2)CC1	inconclusive [inhibitor, full curve, poor fit]
CCOC(=O)Nc1cc(=O)c2ccccc2o1	inconclusive [inhibitor, partial curve, poor fit]
O=C(COC(=O)c1ccccc1)Nc1ccccc1Br	inactive
CSc1ncc(Cl)c(C(=O)Nc2nnc(SC)s2)n1	inactive
Cc1ccc(NC(=O)c2cccs2)cc1NC(=O)c1cccnc1	inconclusive [inhibitor, single point]
COc1cccc(NC(=O)C(=O)NCCc2csc3nc(-c4ccccc4C)nn23)c1	inactive
C/C(=N\NC(=O)c1c(Cl)c(C)nn1C)c1cccc(NC(=O)COc2ccc(Cl)cc2)c1	inconclusive [inhibitor, partial curve]
O=C1CSC(=S)N1/N=C/c1cc(Br)ccc1O	inactive
CC(=O)N(CC1CCCO1)c1nnc(-c2ccccn2)s1 (stereo not drawn)	inconclusive [inhibitor, partial curve]
